Results published in PMC4336329 (PLoS ONE, 2015).
Hit rate of the full screen: of about 310,000 compounds, about 2,200 (0.71%) showed an effect of 50% or more. Effects have a minus sign here. The list shows a part of the results.

biological target: human ether-à-go-go-related gene (hERG) potassium channel (human, UniProt Q12809); experiment: primary screen, population patch clamp on CHO cells stably expressing hERG
Sequence (Q12809 whole entry, looked up): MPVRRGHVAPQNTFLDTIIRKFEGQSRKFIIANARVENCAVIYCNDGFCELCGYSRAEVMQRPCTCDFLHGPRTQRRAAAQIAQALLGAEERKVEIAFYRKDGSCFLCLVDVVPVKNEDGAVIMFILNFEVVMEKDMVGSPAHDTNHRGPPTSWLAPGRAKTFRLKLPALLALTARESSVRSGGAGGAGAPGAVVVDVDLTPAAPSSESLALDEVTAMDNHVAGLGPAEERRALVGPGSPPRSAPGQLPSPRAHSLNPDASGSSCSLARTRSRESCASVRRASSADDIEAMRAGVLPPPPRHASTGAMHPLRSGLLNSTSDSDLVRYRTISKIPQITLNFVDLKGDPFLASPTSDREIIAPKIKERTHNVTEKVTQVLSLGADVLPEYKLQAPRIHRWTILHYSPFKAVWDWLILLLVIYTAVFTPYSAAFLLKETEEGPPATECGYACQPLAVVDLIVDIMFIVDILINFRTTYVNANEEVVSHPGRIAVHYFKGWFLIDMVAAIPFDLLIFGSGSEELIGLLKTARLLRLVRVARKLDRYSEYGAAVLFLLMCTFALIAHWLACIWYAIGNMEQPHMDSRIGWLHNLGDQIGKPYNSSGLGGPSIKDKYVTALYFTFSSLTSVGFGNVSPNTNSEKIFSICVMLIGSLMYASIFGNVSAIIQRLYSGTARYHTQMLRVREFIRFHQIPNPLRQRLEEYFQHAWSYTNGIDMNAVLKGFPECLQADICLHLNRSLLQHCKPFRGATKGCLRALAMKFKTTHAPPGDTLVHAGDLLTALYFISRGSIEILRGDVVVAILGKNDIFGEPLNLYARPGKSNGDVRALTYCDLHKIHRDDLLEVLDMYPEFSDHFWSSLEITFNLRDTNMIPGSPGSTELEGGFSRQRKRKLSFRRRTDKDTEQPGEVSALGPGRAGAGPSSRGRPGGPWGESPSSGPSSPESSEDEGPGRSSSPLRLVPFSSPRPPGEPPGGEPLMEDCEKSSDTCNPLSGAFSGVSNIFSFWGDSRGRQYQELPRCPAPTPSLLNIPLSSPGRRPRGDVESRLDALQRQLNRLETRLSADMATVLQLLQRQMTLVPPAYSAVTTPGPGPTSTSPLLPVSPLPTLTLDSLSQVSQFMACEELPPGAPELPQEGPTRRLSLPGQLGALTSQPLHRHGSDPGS

Row | SMILES | hERG current change (%, negative = inhibition) at 1uM [%]
1 | CC(=O)Nc1ccc(S(=O)(=O)N2c3ccccc3NC(=O)CC2C)c(Cl)c1 (stereo not shown) | 15
2 | CSc1ccccc1NC(=O)Nc1ccccc1Cl | 10.5
3 | COc1cc(/C=C2/N=C(c3ccccc3)OC2=O)c(F)cc1OCc1ccccc1 | 14.3
4 | CC(=O)Nc1cccc(NC(=O)COc2nncc3ccccc23)c1 | 5.26
5 | S=c1nc[nH]c2c1[nH]c1ccc(Cl)cc12 | 11.5
6 | Cc1ccccc1-n1nc(C(=O)O)cc1-c1ccccc1 | 1.01
7 | CCC1CO/C(=C(\C(=C(Cl)Cl)N2CCOCC2)[N+](=O)[O-])N1 (stereo not shown) | 8.01
8 | Cc1ccc(C2=NN(CC(=O)NCc3ccco3)C(=O)CC2)cc1 | -2.1
9 | O=C(NC1CCCN(Cc2ccccc2F)C1)c1cccs1 (stereo not shown) | -3.65
10 | Cn1c2ccccc2c(=O)n2c(=O)c3ccccc3cc12 | -2.16
11 | O=C(CCn1cccc1)NCc1ccc2c(c1)OCO2 | 14.3
12 | CC(C)(C)NC(=O)/C=C/c1cccc(C(F)(F)F)c1 | 7.22
13 | Cc1cc(C)n2nc(SCC(=O)NC3CCCC(C)C3C)nc2n1 (stereo not shown) | 17.8
14 | COc1ccc(CCN(C(=O)C(F)(F)F)C(C(=O)NC2CCCCC2)c2ccc(C)s2)cc1OC (stereo not shown) | 20.5
15 | O=C(c1ccco1)N(CCC(c1ccccc1)c1ccco1)Cc1ccccc1 (stereo not shown) | 4.3
16 | O=C1CCC(=O)N1c1ccc(NC2CCN(Cc3ccccc3)CC2)c([N+](=O)[O-])c1 | 9.1
17 | CCCCN(CCCC)S(=O)(=O)c1ccc(C(=O)Nc2nnc(COC)o2)cc1 | -1.96
18 | CC(=O)N1CCN(CC(=O)Nc2cc([N+](=O)[O-])ccc2Cl)CC1 | 1.54
19 | COc1cc(NC(=O)C2CC(=O)N(CCc3ccccc3)C2)cc(OC)c1 (stereo not shown) | 9.18
20 | CCc1nnc(NS(=O)(=O)c2ccc(NC(=O)c3ccc(S(=O)(=O)N(CC)CC)cc3)cc2)s1 | 8.78
21 | Cc1nc2ccccc2n1C1CCN(Cc2nnnn2CCc2ccccc2)CC1.Cl | -33.3
22 | O=C(Cc1cc(=O)[nH]c(=O)[nH]1)NCc1ccc(Cl)cc1 | 12

Row | SMILES | hERG current change (%, negative = inhibition) at 1uM [%]
23 | O=C(NC1CCCc2ccccc21)c1cc(Cl)ccn1 (stereo not shown) | 17.8
24 | CC1CCCCN1S(=O)(=O)c1ccc(C(=O)Nc2nnc(-c3ccco3)o2)cc1 (stereo not shown) | 6.76
25 | N#CC1=C(N)C(C#N)(C#N)[C@H](c2c(F)cccc2F)[C@H]2CC3(CC=C12)OCCO3 | -1.32
26 | COc1ccccc1C(=O)N/C(=C/c1ccc(Br)cc1)C(=O)NCC(=O)O | 5.89
27 | Cc1nc(C(=O)N(C)C)nn1-c1ccc([N+](=O)[O-])cc1 | 7.45
28 | CCOCC(=O)Nc1ccc(-c2cn3cccnc3n2)cc1 | -6.78
29 | COc1cc(OC)cc(-c2sc3ccc(OC)cc3c2C#CC(C)(C)O)c1 | 16.1
30 | CC(C)c1ccccc1OCC(=O)NN1C(=O)c2ccccc2C1=O | 13.3
31 | O=C(c1ccccc1)c1ccc(OCCO)cc1 | 17.7
32 | CCOC(=O)Cc1nn(C(C)C)c(=O)c2ccccc12 | 19
33 | CCCCCCSc1ccc(-c2nc3ccc(C)cn3c2NCc2ccccc2)cc1.O=C(O)C(F)(F)F | 11.1
34 | COc1ccccc1-c1nc(C(=O)NCC2CCCO2)cc2c1[nH]c1ccccc12 (stereo not shown) | 6.04
35 | COc1ccc(-c2ccc(C#N)c(SCC(=O)NC3CC3)n2)cc1OC | 14.7
36 | N#C/C(=C/c1ccc(Sc2nc3ccccc3[nH]2)o1)c1ccccc1F | -0.974
37 | CCN(CC)C(=O)CSc1nc2c(sc(=S)n2-c2ccccc2)c(=O)n1-c1ccc(OC)c(OC)c1 | 9.98
38 | COc1ccc(CCNC(=O)Cc2cc(=O)[nH]c(=O)[nH]2)cc1OC | 0.979
39 | Cc1ccc(S(=O)(=O)N2CCN(C(=O)CSCc3ccc(C(C)C)cc3)CC2)cc1 | -0.929
40 | Cc1nn(CCOc2ccccc2)c(=O)n1-c1cccc(F)c1 | 5.48
41 | CCn1c(CNc2cccc(Cl)c2)nnc1SCC(=O)OC1CCCCC1 | -0.937
42 | O=C(O)CSc1nc(SCc2ccccc2Cl)nc2c1CCCC2 | 14.9
43 | Cc1nnc(NC(=O)CN2C(=O)NC3(CCCC3)C2=O)s1 | 14.6
